# Laboratory results published in paper PMC4336329 (PLoS ONE, 2015).
# The whole screen tested about 310,000 compounds, of which about 2,200 (0.71%) showed an effect of 50% or more. The effect is printed as a negative number. This is one part of the list.
# Target: human ether-à-go-go-related gene (hERG) potassium channel (human, UniProt Q12809)
# Assay: primary screen, population patch clamp on CHO cells stably expressing hERG
# human ether-à-go-go-related gene (hERG) potassium channel, sequence (Q12809 whole entry, looked up): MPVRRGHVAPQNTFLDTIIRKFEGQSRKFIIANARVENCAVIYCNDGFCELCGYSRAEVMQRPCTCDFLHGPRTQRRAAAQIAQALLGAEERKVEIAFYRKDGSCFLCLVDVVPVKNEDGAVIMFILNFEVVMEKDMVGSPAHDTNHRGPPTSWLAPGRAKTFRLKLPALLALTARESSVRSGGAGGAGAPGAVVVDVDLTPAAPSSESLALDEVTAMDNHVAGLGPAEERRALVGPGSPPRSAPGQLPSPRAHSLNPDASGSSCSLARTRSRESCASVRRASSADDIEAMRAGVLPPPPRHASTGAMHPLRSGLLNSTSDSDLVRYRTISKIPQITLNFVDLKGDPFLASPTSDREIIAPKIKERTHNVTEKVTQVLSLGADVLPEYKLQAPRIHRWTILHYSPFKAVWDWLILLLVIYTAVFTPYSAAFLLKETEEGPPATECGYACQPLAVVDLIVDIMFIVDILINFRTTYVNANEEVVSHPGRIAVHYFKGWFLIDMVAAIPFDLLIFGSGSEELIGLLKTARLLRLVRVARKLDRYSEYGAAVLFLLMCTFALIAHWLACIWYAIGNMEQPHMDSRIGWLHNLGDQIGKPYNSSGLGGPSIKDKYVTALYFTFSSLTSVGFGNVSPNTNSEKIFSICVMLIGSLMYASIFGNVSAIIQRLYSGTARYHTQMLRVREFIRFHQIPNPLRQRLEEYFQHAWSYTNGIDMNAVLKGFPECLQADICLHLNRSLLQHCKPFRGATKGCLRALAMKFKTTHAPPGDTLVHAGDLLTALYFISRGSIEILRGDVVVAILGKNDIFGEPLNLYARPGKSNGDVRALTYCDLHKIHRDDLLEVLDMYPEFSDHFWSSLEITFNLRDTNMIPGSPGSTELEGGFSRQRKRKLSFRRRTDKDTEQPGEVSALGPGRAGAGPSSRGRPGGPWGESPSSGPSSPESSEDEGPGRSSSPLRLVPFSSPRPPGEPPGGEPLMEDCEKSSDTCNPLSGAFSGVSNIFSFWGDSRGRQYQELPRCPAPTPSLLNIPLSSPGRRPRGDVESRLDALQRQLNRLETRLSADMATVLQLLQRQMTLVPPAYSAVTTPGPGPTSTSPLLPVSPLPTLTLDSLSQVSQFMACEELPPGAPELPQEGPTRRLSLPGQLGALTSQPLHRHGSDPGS
row,SMILES,"hERG current change (%, negative = inhibition) at 1uM [%]"
1,CCOc1ccc2c(c1)C(=NNC(=O)c1ccncc1)c1cc(OCC)ccc1-2,-0.661
2,Cc1cccc(C(=O)C2CCN(S(=O)(=O)c3ccc(C(=O)O)cc3)CC2)c1,5.21
3,O=C(NNC(=O)c1ccc(Br)cc1)c1ccncc1,13.1
4,O=C(NC1CCCCC1)C1CCN(C(=O)c2ccccc2Cl)CC1,17.1
5,O=C(CCl)NC(Cc1ccccc1)c1ccccc1 (stereo not shown),9.18
6,CN(C)C(CNC(=O)c1cccc(NS(=O)(=O)c2ccc(Br)cc2)c1)c1ccco1 (stereo not shown),-5.22
7,COC(=O)CCC(=O)OC1(C)C(=O)C=C2C=C(C3CC3)N(CCc3c[nH]c4ccccc34)C=C2C1=O (stereo not shown),10.8
8,COc1cccc(C2NC(=S)NC3=C2CCc2ccccc23)c1 (stereo not shown),3.56
9,CCC1=NC(c2ccc(OC)c(OC)c2)N(O)C1(C)C (stereo not shown),5.15
10,CC(=O)c1csc(COc2ccccc2)n1,13.3
11,Cc1ccc(C(=O)NCc2ccc3c(c2)OCO3)c(C)c1,12.3
12,CC(=O)Oc1ccc(C(=O)NC(C)CCc2ccccc2)cc1 (stereo not shown),14
13,Cc1ccc(Cl)cc1NC(=O)CC1NC2CCCCC2NC1=O (stereo not shown),14.9
14,CC(C)c1ccccc1OCC(=O)Nc1ccc2[nH]ncc2c1,10.3
15,NS(=O)(=O)c1ccc(CCNC(=O)c2ccc(=O)[nH]c2)cc1,12.7
16,CN1CCN(C(=O)c2ccccc2Nc2ccc(SC(F)F)cc2)CC1.Cl,9.91
17,Cn1c(=O)c2c(SCC(=O)NCC3CCCO3)nc(-c3ccccc3Cl)nc2n(C)c1=O (stereo not shown),-6.21
18,CCc1c(C)[nH]n(CCC#N)c1=O,2.22
19,CCN(CC)CCOCCOc1cc(C)c(Cl)c(C)c1,-1.67
20,CCOc1cc(/C=N/Nc2nc(N3CCCCC3)nc(N3CCCCC3)n2)ccc1OC(=O)c1ccco1,17.3
21,COc1ccccc1OCC(O)Cn1nc(C)cc1C (stereo not shown),14.5
22,Cc1csc(NC(=O)C2CCCCN2S(=O)(=O)c2ccccc2)n1 (stereo not shown),7.88

row,SMILES,"hERG current change (%, negative = inhibition) at 1uM [%]"
1,O=C(C/C=N\OCc1c(Cl)cccc1Cl)Oc1ccc(Cl)cc1Cl,8.47
2,Cc1nc(N2CCCCC2)nc(N2CCCCC2)c1C=O,19.1
3,Cc1ccc(S(=O)(=O)N2CCN(C(=O)CCc3nc4ccccc4c(=O)[nH]3)CC2)c(C)c1,-2.92
4,CCOC(=O)C1CCCN(C(=O)Cn2nc(Cc3cccnc3)c3ccccc3c2=O)C1 (stereo not shown),11.1
5,COc1ccc(C2c3ccc(O)cc3Oc3ncn(CCCO)c(=N)c32)cc1OC (stereo not shown),7.81
6,CCOC(=O)c1cc(-c2ccc(/C=N\n3cnnc3)o2)ccc1Cl,-9.22
7,O=C(CCn1c(=O)c2ccccc2n(Cc2cc(=O)n3ccccc3n2)c1=O)NCc1ccco1,1.3
8,Cc1ccc(-c2nnc(-c3ccccc3)o2)cc1,14.6
9,CCc1cc(=O)oc2cc(OCC(=O)NCCCN3CCCC3=O)ccc12,7.58
10,CSc1ccccc1C(=O)NCC(c1ccco1)N1CCCCC1 (stereo not shown),6.8
11,O=C(O)C1CCCCN1S(=O)(=O)c1cccc2nsnc12 (stereo not shown),7.5
12,Cc1cc(Cl)ccc1NC(=O)CCC(=O)N/N=C/c1cccnc1,5.63
13,CN1CCC(NC(=O)c2cc(-c3cccc(Br)c3)nc3ccccc23)CC1,-31.3
14,CCOc1ccc(CNS(=O)(=O)c2c(C(=O)N3CCCC3)c(C)n(C)c2C)cc1OC,6.44
15,CN(C)CC(C)(C)CNC(=S)Nc1ccc(S(=O)(=O)N2CCOCC2)cc1,5.77
16,COc1ccc(/C=C/C(=O)N2CCNC(=O)C2)c(OC)c1,19
17,O=C(N(c1ccccn1)c1ccccn1)C12CC3CC(CC(C3)C1)C2,0.429
18,COc1cccc(N2CCN(C(=O)CCC(=O)c3ccc(Cl)s3)CC2)c1,3.04
19,COC(=O)N/N=C\c1cc2c(cc1Br)OCO2,6.41
20,CCN1C(=O)/C(=C\N2CCN(c3cccc(Cl)c3)CC2)SC1=S,6.97
21,N#Cc1cc(-c2ccccc2)oc1/N=C/c1ccccc1O,-0.45
22,O=[N+]([O-])/C(C(Cl)=C(Cl)Cl)=C(/Sc1ccccc1)N1CCCCC1,10.4

row,SMILES,"hERG current change (%, negative = inhibition) at 1uM [%]"
1,CC(Oc1ccccc1)C(=O)Nc1ccc(NC(=O)c2ccccc2)cc1 (stereo not shown),9.77
2,CCOC(=O)CN1C(=O)C(=O)c2cc(C)ccc21,11.9
3,COc1ccc(-n2c(SCC(=O)NCC3CCCO3)nc3c([nH]c4ccccc43)c2=O)cc1OC (stereo not shown),15.9
4,CCN(CC)c1ccc(NC(=O)CSc2nc3nc(C)cc(C)c3c(=O)[nH]2)cc1,0.788
5,CCn1nc(NS(=O)(=O)c2ccc([N+](=O)[O-])cc2)c2cc3cc(C)ccc3nc21,9.86
6,CC(C)c1nc(CNC(=O)C2CCC(=O)N(CCc3cccc(F)c3)C2)cs1 (stereo not shown),7.72
7,CCOc1ccc(OCC)c(NC(=O)Nc2ccc3c(c2)N(C)C(=O)CS3)c1,5.78
8,Cc1noc(/C=C/c2ccccc2F)c1S(=O)(=O)N1CCC(C(=O)N2CCN(C)CC2)CC1,7.3
9,NC(=O)COc1ccc(C(=O)/C=C2/C(=O)Nc3ccccc32)cc1,8.28
10,N#CC(c1nc2ccccc2nc1N1CCOCC1)S(=O)(=O)c1ccccc1 (stereo not shown),13.6
11,C=C(C)C1CCC(C)=C1COC(=O)Nc1ccccc1 (stereo not shown),11.5
12,COc1ccc(/C=C2\SC(N3CCCCC3)=NC2=O)cc1,19.1
13,CC(=O)c1ccc(NC(=O)C(C)Oc2ccc(N(C)S(=O)(=O)c3ccc(C)cc3)cc2)cc1 (stereo not shown),7.12
14,CCOC(=O)CC(C#N)c1cn(C)c2ccccc12 (stereo not shown),-0.913
15,CCC(=O)Nc1nc(CC(=O)Nc2ccccc2OC)cs1,-1.9
16,O=C(CCN1C(=O)/C(=C/c2ccccc2)SC1=S)Nc1cccnc1,10.6
17,Cc1ccc(-n2nc3c(c2NC(=O)c2ccc4c(c2)OCO4)CSC3)c(C)c1,1.85
18,CCOc1ccc(NC(=O)CN(C)C(=O)C2CC(=O)N(Cc3ccco3)C2)cc1OCC (stereo not shown),6.7
19,CN1CCN(Cn2cc(/C=C/C(=O)c3ccccc3)c3ccccc32)CC1,10.1
20,C/C(Cc1ccccc1)=N\NC(=O)CNC(=O)c1ccc(Br)cc1,1.18
21,CCN1CCCC1Cn1cnc2c([nH]c3cccc(Cl)c32)c1=O (stereo not shown),-38.7
22,Cc1cc(C)n2nc(N)c(N=Nc3ccccc3)c2n1,9.32

row,SMILES,"hERG current change (%, negative = inhibition) at 1uM [%]"
1,CC(C)CN(CCNC(=O)CN1N=C(c2ccc(Cl)cc2)CCC1=O)CC(C)C,12.3
2,Cc1ccc(N(CC(=O)NC(C)(C)C)C(=O)CNC(=O)c2cccs2)cc1,7.4
3,NC(=O)Cn1c(S(=O)(=O)Cc2ccccc2)nc2ccccc21,8.07
4,CCCCNC(=O)c1onc(CSc2cccc(OC)c2)c1C(=O)O,9.58
5,Cc1cc(C)c2c(CC(=O)Nc3nccs3)coc2c1,11.1
6,COc1cc(C(=O)Nc2cccc(S(=O)(=O)NCc3ccco3)c2)cc(OC)c1OC,-2.69
7,CC(C)CC(=O)NC(NC(=S)Nc1ccccc1)C(Cl)(Cl)Cl (stereo not shown),6.59
8,O=C(CN1C(=O)NC(c2ccccc2)(c2ccccc2)C1=O)NC1CCCC1,11.2
9,O=C(C1CC(=O)N(c2ccc(Cl)cc2)C1)N1CCN(Cc2ccc3c(c2)OCO3)CC1 (stereo not shown),-33.4
10,CCc1ccc(N2CC(C(=O)Nc3ccccc3F)CC2=O)cc1 (stereo not shown),-9.77
11,O=C(Nc1ccccc1)c1cc(-c2ccccc2Cl)no1,-7.92
12,CCCCn1c(CCC(=O)O)ccc1-c1cccs1,12.9
13,COc1ccccc1N=Nc1ccc(O)c2ncccc12,14.3
14,Cc1cc(C)[n+](C)n1CC(O)Cn1c2ccccc2c2ccccc21.[I-] (stereo not shown),7.98
15,COc1ccc(-c2noc(CCC(=O)NCCc3ccccc3)n2)cc1,17.7
16,COc1ccc(C2/C(=C(/O)c3ccc(C)cc3)C(=O)C(=O)N2CCCN2CCOCC2)cc1 (stereo not shown),22.3
17,CCc1nc(Nc2ccc(F)cc2)c2oc3ccccc3c2n1.Cl,9.34
18,COc1ccc(OC)c(NC(=O)CSc2nnc(CNC(=O)c3cc(OC)c(OC)c(OC)c3)o2)c1,20.3
19,O=C(Nc1c(-c2ccccc2)nc2ccccn12)c1ccco1,0.792
20,O=C(CCc1c[nH]c2ccccc12)NCC1CCCO1 (stereo not shown),5.78
21,COc1ccc(/C=N/NC(=O)C2(C)NC(C)(C)Cc3ccccc32)cc1 (stereo not shown),0.973
22,O=C(Nc1ccc(Oc2ccc3c(c2)C(=O)N(c2ccc(O)cc2)C3=O)cc1)c1cccs1,5.17
